Experimental data from ChEMBL document CHEMBL4513135, “CO-ADD screening of IQOG CSIS (Spain) compounds”.
This is one part of the list. Potency and affinity values are given separately.

The compounds below were run on Pseudomonas aeruginosa. Conditions: Concentration 32 ug.mL-1; ASSAY_TEST Inhibition of Bacterial Growth; detection method Absorption (OD600); MEDIA CAMHB; plate type 384well; NBS; CORNING #3640; time 18 hr.

SMILES	Inhibition
CCOC(=O)C1=C(C)OC(N)=C(C#N)C1c1ccc(OC)c(OC)c1 (configuration not stated)	27.7%
COc1ccccc1C1C(C#N)=C(N)Oc2c1ccc1ccccc21 (configuration not stated)	24.82%
C1CNCCNCCNCCNC1	25.02%
C#CCN1CCc2nc3nc(NC4CCN(Cc5ccccc5)CC4)c(C#N)cc3c(N)c2C1	9.07%
N#Cc1c(N)nc(N2CCOCC2)c(C#N)c1-c1ccccc1	13.59%
CCOC(=O)/C(=C\c1ccccc1)C(=O)c1ccccc1	13.68%
N#CC1(Br)C(=NBr)Oc2c(ccc3ccccc23)C1c1ccc([N+](=O)[O-])cc1 (configuration not stated)	-18.02%
Cc1nc2c(cc1C#N)c(N)nn2C	16.64%
COc1ccccc1-c1c(C#N)c(=O)oc2c1ccc1ccccc12	13.43%
Cc1ccc(C(O)SNNc2nc(C)nc3c2c(C)nn3-c2ccccc2)cc1 (configuration not stated)	24.28%
COc1ccc(C2C(C#N)=C(N)Oc3c2ccc2ccccc32)cc1 (configuration not stated)	18.57%
CC1=N/C(=C(\C)c2ccccc2)C(=O)O1	14.61%
C#CCn1c(N)c(C#N)c2cc(O)ccc21	16.97%
C#CCN(C)c1cc(Cl)nc(N)n1	14.05%
Cc1ccc2nc(Cl)c(/C=N/NCc3ccccc3)cc2c1	0.5%
CNCc1cc2cc(OCc3ccccc3)ccc2n1C.Cl	29.95%
Cc1ccc(C(O)SNNc2ncnc3c2c(C)nn3-c2ccccc2)cc1 (configuration not stated)	6.13%
CCOC(=O)c1c(C)nc2nc3c(c(N)c2c1-c1ccccc1OC)CCCCC3	7.43%
C/C=C(/C#N)C(=O)OC	15.98%
COc1cccc(C2C(C#N)=C(N)Oc3[nH]nc(C)c32)c1 (configuration not stated)	32.5%
CCOC(=O)c1c(C)nc(NCC2CCN(Cc3ccccc3)CC2)c(C#N)c1-c1ccccc1	-1.67%
O=C(Cc1c[nH]c2ccccc12)NN=Cc1ccccc1	16.94%
C#CCN(C)Cc1cc2cc(OCCCCC3CCN(Cc4ccccc4)CC3)ccc2n1C.Cl	51.07%

SMILES	Inhibition
COc1ccc(-c2cc(-c3cc4c(OC)ccc(OC)c4nc3Cl)cc(=O)[nH]2)cc1	-3.34%
Cn1ccnc1C1C2=C(CC(C)(C)CC2=O)Oc2nc3c(c(N)c21)CCC3 (configuration not stated)	-1.43%
O=C(N/N=C/Cc1ccccc1)c1cc2ccccc2[nH]1	36.99%
O=C1SC(SCc2ccccc2)=NC1=Cc1cccc(OCc2ccccc2)c1	-7.59%
C=C1CN(C)c2c(C#N)c(-c3ccccc3)c(C#N)c(=O)n21	6.37%
Br.C#CCNCc1ccccc1	2.67%
COc1ccc(C=C2N=C(c3ccccc3)OC2=O)cc1	9.34%
CSC1=NC2(CC2c2ccccc2)C(=O)N1 (configuration not stated)	46.96%
Cn1c(C(=O)O)cc2cc(OCCCC3CCN(Cc4ccccc4)CC3)ccc21	25.39%
CCOC(=O)CCc1c[nH]c2ccccc12	1.46%
COc1cc(C2C(C#N)=C(N)Oc3ccc4ccccc4c32)ccc1O (configuration not stated)	8.4%
COc1ccccc1C1c2ccc3ccccc3c2OC(=NBr)C1(Br)C#N (configuration not stated)	5.32%
CCOC(=O)C1=C(C)NC(N)=C(C#N)C1c1ccc(OC)cc1 (configuration not stated)	12.75%
COc1cccc(-c2c(C#N)c(=O)oc3c2ccc2ccccc23)c1	-21%
CCOC(=O)C1=C(C)Oc2nc3c(c(N)c2C1c1ccc(O)c(OC)c1)CCC3 (configuration not stated)	8.73%
COc1cccc(C=C2N=C(c3ccccc3)OC2=O)c1OC(C)=O	22.12%
O=C(Cc1c[nH]c2ccccc12)N/N=C/c1ccco1	36.18%
COc1ccccc1C1c2c(ccc3ccccc23)OC(=N)C1(Br)C#N (configuration not stated)	1.01%
O=C1NC(=S)N/C1=C\c1ccccc1	38.25%
COc1ccc(C2c3c(nc4c(c3N)CCCC4)Oc3ccc4ccccc4c32)c(OC)c1 (configuration not stated)	20.09%
N#Cc1cc(C#N)c(N2CCCC2)nc1N1CCCC1	50.45%
N#Cc1cc2c(N)c3c(nc2nc1Cl)CCCC3	20.75%
N#Cc1cc(C#N)c(NCc2ccccc2)nc1N	-21.9%

SMILES	Inhibition
CC(=O)Oc1ccc(C=C2N=C(C)OC2=O)cc1	32.36%
C#CCN(C)c1ncc(C#N)c(N)n1	10.37%
COc1ccc2cc(C3C(C(C)=O)=C(C)Oc4nc5c(c(N)c43)CCC5)c(Cl)nc2c1 (configuration not stated)	8.84%
COc1ccc2c(c1)cc(C(=O)Nc1ccccc1)n2C	8.89%
CC(C)(C)OC(=O)N[C@H]1CC[C@H](O)CC1	10.73%
c1ccc(CNc2ncnc3c2cnn3-c2ccccc2)cc1	10.11%
COc1nc2nc3c(c(N)c2cc1C#N)CN(Cc1ccccc1)CC3	16.42%
N#Cc1c(Cl)nc(N2CCCCC2)c(C#N)c1-c1ccccc1	-7.48%
O=Cc1ccc(OCCO[N+](=O)[O-])cc1	11.65%
Cl.OCCCC1CCNCC1	-20.82%
N#Cc1c(N)nc(N)c(C#N)c1-c1ccccc1	-7.53%
COc1ccc2c(c1)cc(C(=O)O)n2C	23.36%
CC(C)(C)OC(=O)Nc1ccc(Cl)cn1	10.81%
CCCC(C)NNC(=O)Cc1c[nH]c2ccccc12 (configuration not stated)	22.46%
O=Cc1cc2ccccc2nc1Cl	1.44%
NNC(=O)CCc1c[nH]c2ccccc12	39.72%
C#CCN(C)Cc1cc2cc(OC)ccc2n1C	3.66%
COc1ccccc1C1C(C#N)=C(N)Oc2ccc3ccccc3c21 (configuration not stated)	13.92%
O=C1C=C(Nc2ccccc2)C(=O)N1c1ccccc1	11.12%
Cl.N#Cc1cc(C#N)c(N2CCCC2)nc1Cl	9.12%
NC(=O)N/N=C/c1c[nH]c2ccccc12	34.82%
CC1Cc2c(nc3c(c2N)CCCC3)NC1=O (configuration not stated)	44.96%
C#CCNC.O=C(O)C(=O)O	3.05%

SMILES	Inhibition
CNCc1cc2cc(OC)ccc2n1C.Cl	38.07%
N#Cc1c(N)nc(O)c(C#N)c1-c1ccccc1	14.77%
COc1ccc2cc(C3C4=C(CC(C)(C)CC4=O)Oc4nc5c(c(N)c43)CCCCC5)c(Cl)nc2c1 (configuration not stated)	5.01%
CC(=O)NCCc1ccccc1	15.71%
CCOC(=O)c1cc(C#N)c(N)nc1C	7.6%
Nc1c2c(nc3nc4ccccc4nc13)CCCC2	-1.02%
C#CCN(C)Cc1cc2cc(OCCCC3CCN(Cc4ccc(C#N)cc4)CC3)ccc2n1C	10.58%
CC(=O)O[C@H]1CC[C@H](NC(=O)c2ccccc2)CC1	30.15%
O=C(NNCc1c[nH]c2ccccc12)c1cccc2ccccc12	19.22%
CN1C/C(=C\Br)n2c1c(C#N)cc(C#N)c2=O	1.74%
C#CCN1CCc2nc3nc(N4CCCC4)c(C#N)cc3c(N)c2C1	27.54%
O=C(N/N=C/c1ccc([N+](=O)[O-])cc1)c1cc2ccccc2[nH]1	30.81%
CCC(CC)NNC(=O)c1c[nH]c2ccccc12.Cl	30.6%
C#CCN(C)c1nc(OC)c(C#N)cc1C#N	9.36%
N#CC1=C(N)Oc2ccc3ccccc3c2C1c1cccc([N+](=O)[O-])c1 (configuration not stated)	13.73%
N#Cc1c(Cl)nc(Cl)c(C#N)c1-c1ccccc1	1.7%
Cc1nn(-c2ccccc2)c2ncn3nc(-c4ccccc4)nc3c12	23.31%
N#CC1(Br)C(=NBr)Oc2c(ccc3ccccc23)C1c1ccccc1[N+](=O)[O-] (configuration not stated)	32.2%
CC1=NC(=Cc2ccccc2)C(=O)S1	24.56%
Cl.ClCCCC1CCNCC1	9.84%
Cc1ccc(C=C2N=C(c3ccccc3)OC2=O)cc1	17.23%
COc1cccc(C2C(C#N)=C(N)Oc3c2ccc2ccccc32)c1 (configuration not stated)	30.49%
CCC(Cc1ccccc1)NNC(=O)c1cc2ccccc2[nH]1 (configuration not stated)	1.16%

SMILES	Inhibition
COc1cc(Br)c(C=O)cc1OC	17.32%
COc1ccccc1C1C(C#N)=C(N)Oc2[nH]nc(C)c21 (configuration not stated)	-5.23%
N#Cc1c(N)nc(NCc2ccccc2)c(C#N)c1-c1ccccc1	3.37%
CNC(=O)c1cc2cc(OCc3ccccc3)ccc2n1C	21.94%
COC(=O)C(NC(=O)c1ccccc1)=C(C)c1ccccc1	45.08%
COc1ccc2cc(C3C(C(C)=O)=C(C)Oc4nc5c(c(N)c43)CCCCC5)c(Cl)nc2c1 (configuration not stated)	6.12%
CCOc1nc(N)c(C#N)cc1C#N	2.22%
C#CCN(C)c1cc(C)nc(C)n1	37.32%
Cc1[nH]nc2c1C(c1ccc(O)c(O)c1)C(C#N)=C(N)O2 (configuration not stated)	33.68%
Cc1ccccc1-c1c(C=N)c(N)nc2c1S(=O)(=O)OC2(C)C	38.2%
C#CC[n+]1ccccc1N.[Br-]	-1.42%
CSC1=NC(=Cc2ccccc2)C(=O)N1C	-3.84%
Cl.N#Cc1c(N)nc(NCCO)c(C#N)c1-c1ccccc1	-8.51%
CC(=O)NC=C1C(=O)OC(C)(C)OC1=O	34.55%
CC1=C(C(=O)O[C@@H]2C[C@@]3(C)CC[C@H]2C3(C)C)C(c2ccccc2)C(C#N)=C(N)O1 (some centres not stated)	-21.72%
COC(=O)C(=Cc1ccc(OC)cc1)NC(C)=O	39.27%
N#Cc1cc(Br)cc(Br)c1N	-3.17%
C=C1CN(Cc2ccccc2)c2c(C#N)c(-c3ccccc3)c(C#N)c(=N)n21	8.72%
Cn1c(CNNC(=O)Cc2cccc3ccccc23)cc2ccccc21	3.2%
O=C1OC(c2ccccc2)=NC1=Cc1ccc(Cl)cc1	20.55%
